The source of these data is the supplement of paper PMC4967469.

IC50 is the fitted dose that halves viability relative to control wells, and lower means more sensitive; fits outside the tested doses are given as limits. AUC sums up the same curve from the lowest dose to the 256-fold higher top dose: 1 means no effect, lower means more sensitive. An inferred top dose was derived from the fitted curves, not read from the paper. Where only a bound is given, the exact number is not on record here.

Compound in the experiment: N.N.[Cl][Pt][Cl] [Cisplatin]
Briefly: Viability of human cancer cell lines after 72 h of drug (GDSC screen). To be noted: top dose inferred. How it is done: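 Human cancer cell lines in 384-well plates, medium with 10% serum, drug for 72 h over a 256-fold dose range (nine 2-fold or five 4-fold steps up to the top dose). Adherent lines were fixed and stained with the nucleic acid dye Syto60, suspension lines read with resazurin; signal relative to control wells, capped at 0 and 100%. One two-parameter sigmoid per drug and line, fitted in a mixed model over all curves with the slope shared within a line.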
Regarding “KE-37 (lymphoblastic leukaemia, suspension, top dose 10 µM)”, the AUC was 0.851 and the IC50 was 5.04 µM.
Taken in the same sequence, the figures for “KELLY (neuroblastoma, adherent, top dose 10 µM)” were 0.917 and > 10 µM.
Taken in the same sequence, the figures for KGN (ovary, adherent, top dose 10 µM) were 0.897 and > 10 µM.
Taken in the same sequence, the figures for “KINGS-1 (glioma, adherent, top dose 10 µM)” were 0.899 and > 10 µM.
Turning to “KLE (endometrium, adherent, top dose 10 µM)”, the AUC is 0.951 and the IC50 was > 10 µM.
The corresponding values for “KM12 (large intestine, adherent, top dose 10 µM)” are 0.956 and > 10 µM.
Taken in the same sequence, the figures for “KM-H2 (Hodgkin lymphoma, suspension, top dose 10 µM)” were 0.966 and > 10 µM.
Regarding “KMH-2 (thyroid, adherent, top dose 10 µM)”, the AUC amounted to 0.9 and the concentration for half-maximal inhibition (IC50) is > 10 µM.
The corresponding values for “KMOE-2 (acute myeloid leukaemia, suspension, top dose 10 µM)” are 0.929 and > 10 µM.
Taken in the same sequence, the figures for “KMRC-1 (kidney, adherent, top dose 10 µM)” were 0.961 and > 10 µM.
Taken in the same sequence, the figures for “KMRC-20 (kidney, adherent, top dose 10 µM)” were 0.89 and > 10 µM.
As for “KMS-11 (myeloma, suspension, top dose 10 µM)”, the AUC stood at 0.919 and the IC50 is > 10 µM.
The corresponding values for “KMS-12-BM (myeloma, suspension, top dose 10 µM)” are 0.953 and > 10 µM.
The corresponding values for “KNS-42 (glioma, adherent, top dose 10 µM)” are 0.912 and > 10 µM.
The corresponding values for “KNS-62 (lung squamous cell carcinoma, adherent, top dose 10 µM)” are 0.854 and > 10 µM.
For “KNS-81-FD (glioma, adherent, top dose 10 µM)”, the AUC was 0.971 and the half-maximal inhibitory concentration (IC50) was > 10 µM.
The corresponding values for “KON (head and neck, adherent, top dose 10 µM)” are 0.903 and > 10 µM.
Taken in the same sequence, the figures for “KOPN-8 (B-cell leukaemia, suspension, top dose 10 µM)” were 0.853 and 6.16 µM.
Take “KP-1N (pancreas, adherent, top dose 10 µM)”: the AUC came to 0.905 and the IC50 was > 10 µM.
Taken in the same sequence, the figures for “KP-2 (pancreas, adherent, top dose 10 µM)” were 0.977 and > 10 µM.
Taken in the same sequence, the figures for “KP-3 (pancreas, adherent, top dose 10 µM)” were 0.878 and > 10 µM.
For “KP-N-YN (neuroblastoma, adherent, top dose 10 µM)”, the AUC was 0.981 and the IC50 is > 10 µM.
On to KS-1 (glioma, adherent, top dose 10 µM), for which the AUC was determined as 0.905 and the concentration for half-maximal inhibition (IC50) is > 10 µM.
The corresponding values for “KU812 (chronic myeloid leukaemia, suspension, top dose 10 µM)” are 0.925 and > 10 µM.
Taken in the same sequence, the figures for “KU-19-19 (bladder, adherent, top dose 10 µM)” were 0.866 and 8.93 µM.
Take “KURAMOCHI (ovary, adherent, top dose 10 µM)”: the AUC worked out at 0.766 and the concentration for half-maximal inhibition (IC50) was determined as 4.27 µM.
For “KY821 (leukaemia, suspension, top dose 10 µM)”, the AUC turned out to be 0.957 and the IC50 was > 10 µM.
The corresponding values for “KYAE-1 (oesophagus, suspension, top dose 10 µM)” are 0.945 and > 10 µM.
The corresponding values for “KYM-1 (rhabdomyosarcoma, adherent, top dose 10 µM)” are 0.796 and 3.92 µM.
The corresponding values for “KYSE-50 (oesophagus, adherent, top dose 10 µM)” are 0.958 and > 10 µM.
Take “KYSE-70 (oesophagus, adherent, top dose 10 µM)”: the AUC was 0.936 and the 50% inhibitory concentration (IC50) was > 10 µM.
The corresponding values for “KYSE-140 (oesophagus, adherent, top dose 10 µM)” are 0.686 and 2.24 µM.
“KYSE-150 (oesophagus, adherent, top dose 10 µM)”: the AUC was determined as 0.983 and the half-maximal inhibitory concentration (IC50) was > 10 µM.
On to “KYSE-220 (oesophagus, adherent, top dose 10 µM)”, for which the AUC came to 0.843 and the IC50 was found to be 7.67 µM.
The corresponding values for “KYSE-410 (oesophagus, adherent, top dose 10 µM)” are 0.908 and > 10 µM.
The corresponding values for “KYSE-450 (oesophagus, adherent, top dose 10 µM)” are 0.947 and > 10 µM.
Taken in the same sequence, the figures for “KYSE-510 (oesophagus, adherent, top dose 10 µM)” were 0.789 and 3.62 µM.
“KYSE-520 (oesophagus, adherent, top dose 10 µM)”: the AUC worked out at 0.908 and the IC50 is > 10 µM.
Consider “L-363 (myeloma, suspension, top dose 10 µM)”, for which the AUC was determined as 0.927 and the half-inhibitory concentration (IC50) was > 10 µM.
The corresponding values for “L-428 (Hodgkin lymphoma, suspension, top dose 10 µM)” are 0.898 and 9.97 µM.
Taken in the same sequence, the figures for “L-540 (Hodgkin lymphoma, suspension, top dose 10 µM)” were 0.867 and 7.43 µM.
With “LAMA-84 (chronic myeloid leukaemia, suspension, top dose 10 µM)”, the AUC was 0.805 and the IC50 was 5.13 µM.
Taken in the same sequence, the figures for “LAN-6 (neuroblastoma, adherent, top dose 10 µM)” were 0.969 and > 10 µM.
For “LB373-MEL-D (melanoma, adherent, top dose 10 µM)”, the AUC was found to be 0.902 and the IC50 is > 10 µM.
In the case of “LB647-SCLC (small cell lung carcinoma, semi-adherent, top dose 6 µM)”, the AUC came to 0.904 and the IC50 was > 6 µM.
Taken in the same sequence, the figures for “LB771-HNC (head and neck, adherent, top dose 10 µM)” were 0.88 and > 10 µM.
For the cell line “LB831-BLC (bladder, adherent, top dose 10 µM)”, the AUC came out at 0.97 and the half-maximal inhibitory concentration (IC50) is > 10 µM.
Consider “LB1047-RCC (kidney, adherent, top dose 10 µM)”, for which the AUC was 0.826 and the IC50 was 7.14 µM.
Taken in the same sequence, the figures for “LB2241-RCC (kidney, adherent, top dose 10 µM)” were 0.875 and > 10 µM.
Taken in the same sequence, the figures for “LB2518-MEL (melanoma, adherent, top dose 10 µM)” were 0.981 and > 10 µM.
The corresponding values for “LC4-1 (lymphoblastic leukaemia, suspension, top dose 10 µM)” are 0.933 and > 10 µM.
In the case of “LC-1-sq (lung squamous cell carcinoma, adherent, top dose 10 µM)”, the AUC was 0.878 and the half-inhibitory concentration (IC50) is > 10 µM.
As to “LCLC-97TM1 (large cell lung carcinoma, adherent, top dose 10 µM)”, the AUC is 0.896 and the IC50 is > 10 µM.
The corresponding values for “LCLC-103H (large cell lung carcinoma, adherent, top dose 10 µM)” are 0.908 and > 10 µM.
Taken in the same sequence, the figures for “LK-2 (lung squamous cell carcinoma, adherent, top dose 10 µM)” were 0.953 and > 10 µM.
The corresponding values for “LN-18 (glioma, adherent, top dose 10 µM)” are 0.896 and 8.13 µM.
In the case of “LN-229 (glioma, adherent, top dose 10 µM)”, the AUC is 0.913 and the half-inhibitory concentration (IC50) is > 10 µM.
Taken in the same sequence, the figures for “LN-405 (glioma, adherent, top dose 10 µM)” were 0.943 and > 10 µM.
On to “LNZTA3WT4 (glioma, adherent, top dose 10 µM)”, for which the AUC amounted to 0.934 and the half-maximal inhibitory concentration (IC50) is > 10 µM.
The corresponding values for “LOU-NH91 (lung squamous cell carcinoma, adherent, top dose 10 µM)” are 0.937 and > 10 µM.
Taken in the same sequence, the figures for “LOUCY (T-cell lymphoblastic leukaemia, suspension, top dose 10 µM)” were 0.891 and 7.89 µM.
Taken in the same sequence, the figures for “LP-1 (myeloma, suspension, top dose 10 µM)” were 0.99 and > 10 µM.
As for “LS-123 (large intestine, adherent, top dose 10 µM)”, the AUC worked out at 0.957 and the concentration for half-maximal inhibition (IC50) is > 10 µM.
Taken in the same sequence, the figures for “LS-180 (large intestine, adherent, top dose 10 µM)” were 0.979 and > 10 µM.
On to “LS-411N (large intestine, adherent, top dose 10 µM)”, for which the AUC stood at 0.946 and the IC50 was > 10 µM.
The corresponding values for “LS-513 (large intestine, adherent, top dose 6 µM)” are 0.951 and > 6 µM.
The corresponding values for “LS-1034 (large intestine, adherent, top dose 10 µM)” are 0.97 and > 10 µM.

A word on the IC50: it is the concentration at which inhibition is half-maximal.
